Test results as given in a collection of fitness landscapes (doi:10.1016/j.celrep.2020.107928).
Whole data set: some 81,000 sequences, median “one-hybrid fitness for binding NBS DNA” near -0.1, cut for the highest 2% near 0.36. The list shows a part of the results.

B1: Caulobacter ParB omega fusion; a variant is named by its letters at X, in order, B8GW30 (parent)
chain: MESVVVGEPGMSEGRRGLGRGLSALLGEVDAAPAQAPGEQLGGSREAPIEILQRNPDQPRRTFREEDLEDLSNSIREKGVLQPILVRPSPDTAGEYQIVAGERAWRAAQRAGLKTVPIMVRELDDLAVLEIGIIENVQRADLNVLEEALSYKVLMEKFERTQENIAQTIGKSXSHVANXMRLLXLPDEVQSYLVSGELTAXHARAIAAAADPVALAKQIIEGGLSVRETEALARKAPNLSAGKSKGGRPPRVKDTDTQALESDLSSVLGLDVSIDHRGSTGTLTITYATLEQLDDLCNRLTRGI

Variants of: B1
Assay: one-hybrid fitness for binding NBS DNA (the Noc-binding site; scaled: cognate 1, non-cognate 0); higher = stronger binding
Conditions: with NBS DNA site
Method in brief: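 Fitness here means the log change in variant-to-wild-type read ratio between plasmids sequenced before and after selection. That scale was set so cognate equals 1 and non-cognate equals 0. The selection was a bacterial one-hybrid screen of Caulobacter ParB libraries, four specificity codons randomised, in E. coli USO carrying a HIS3 reporter with the site 19 bp from the promoter, grown 48 hours at 37°C on M9-minus-histidine with 0.1 mM IPTG and 5 mM 3-AT.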

one-hybrid fitness for binding NBS DNA, 0.414:
KYKR

one-hybrid fitness for binding NBS DNA, 0.345:
QHKG

one-hybrid fitness for binding NBS DNA, ≤ 0.2:
NTHS
SVSS
NVND
YMQT
RNCD
QLLI
LRCW
VDHR
GNTQ
HDKR
RLHP
HVVE
DNRT
TGGR
TIWG
HQSR
SKPM
VTMW
YSVV
KCSD
HRHS
TGID
MGLM
HQLL
DPAM
HEHR
RLLM
TLFV
SINQ
DNQE
ILTM
TRYM
QAHC
APHC
FQDG
RSSD
CGTN
VATK
HISM
NVTM
VNRM
PGCR
LYKH
LPVS
IVEA
KRWG
QSVF
RSMD
HQYT
EATE
WWTD
WLQR
VRKF
TPTD
IAIS
PHYS
KPSF
WIGT
TRHN
PMDY
GYSA
TNDH
LYPR
LRCL
KRKD
PDPK
KQEY
YFNT
MNTW
GMGS
ICRL
IIPF
KSAR
HPMP
KWIR
KMHG
HFLY
VFTI
STYG
CRRH
TCPK
IWDS
HRVA
AGYL
HVPD
VHLW
ADRT
LYRA
DYHG
IKVS
HTMC
HYKE
DSNC
IGIL
QSTI
VFKV
TMPL
IYKV
KTRA
GLAT
HQPQ
RKRL
RFAW
PVFT
AFRY
SVWP
PMTN
SDGT
FLES
YINC
NHVS
QPTW
NRNR
PLLI
MIVS
ATDT
PRND
TRQP
YIVY
PCAL
QLAG
PQVP
CREG
RDTA
HRCR
RFPW
RICV
GMVM
AKGG
IPGC
NQLS
LKRM
KPLI
NTPH
TKRA
VDIA
DNSS
TVRW
HKDS
VIPV
AQDK
MWHR
KSNG
NPLW
SDLV
EQEG
YDLA
WLYR
AYYR
PVHM
PDMV
LYTA
PQIC
CPTM
EART
ARKS
HIAN
SYHC
ATRD
LTPW
CFSV
NETE
TQRT
KCKY
HFSR
RWYF
HDAF
ADTA
HRSD
MRFK
QCEG
DSWR
DYSP
HSQI
WHAG
LGQT
SNSL
LTMM
PFII
DVNV
VSLE
CKHP
LSRF
GKAF

one-hybrid fitness for binding NBS DNA, 0.293:
RSVR

one-hybrid fitness for binding NBS DNA, 0.461:
RVHS

one-hybrid fitness for binding NBS DNA, 0.215:
QFER

one-hybrid fitness for binding NBS DNA, 0.275:
LRKS

one-hybrid fitness for binding NBS DNA, 0.396:
QRSK

one-hybrid fitness for binding NBS DNA, 0.221:
RNAR

one-hybrid fitness for binding NBS DNA, 0.341:
RKNA

one-hybrid fitness for binding NBS DNA, 0.36:
RRGY

one-hybrid fitness for binding NBS DNA, 0.557:
KRGR
